{"source": "PubChem BioAssay AID1476", "about": "(National Center for Advancing Translational Sciences (NCATS), 2009)", "note": "Among all 200,000 compounds or so, about 4,500 (2.2%) were called active. Inconclusive results, whose numbers are uncertain, are shown with a selection of clear calls. Calls follow the shape of the dose curve; as a rule, active = well fitted inhibition curve with a large enough effect; inconclusive = small, poorly fitted or top-dose-only effect, or effect the other way; inactive = flat fitted curve, though single readings scatter. A potency beside an inconclusive call is a rough fit, not a confirmed value. Potency is read from the fitted curve at half-maximal effect; tags tell the direction and shape of the fitted curve.", "data": [{"biological_target": "Cruzipain (Trypanosoma cruzi) (UniProt P25779)", "sequence (P25779 whole entry, looked up)": "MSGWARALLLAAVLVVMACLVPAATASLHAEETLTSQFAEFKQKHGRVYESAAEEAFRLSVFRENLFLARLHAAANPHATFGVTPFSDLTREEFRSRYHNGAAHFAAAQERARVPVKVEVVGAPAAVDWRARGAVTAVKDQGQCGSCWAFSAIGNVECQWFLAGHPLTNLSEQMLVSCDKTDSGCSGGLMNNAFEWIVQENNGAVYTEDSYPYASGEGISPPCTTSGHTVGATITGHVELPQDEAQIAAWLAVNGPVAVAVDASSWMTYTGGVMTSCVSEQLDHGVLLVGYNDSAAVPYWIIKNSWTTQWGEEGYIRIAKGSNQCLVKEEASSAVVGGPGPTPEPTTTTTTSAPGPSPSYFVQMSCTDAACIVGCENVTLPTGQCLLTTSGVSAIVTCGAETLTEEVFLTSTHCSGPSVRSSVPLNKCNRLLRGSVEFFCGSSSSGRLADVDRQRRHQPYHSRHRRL", "experiment": "qHTS Assay for Promiscuous and Specific Inhibitors of Cruzain (without detergent); also: nearly all actives have a fitted effect of over 40% in size;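 as to max response, negative = inhibition: plate controls were enzyme without inhibitor for no effect and buffer without enzyme for full effect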", "details": "purified cruzain, Z-FR-AMC fluorescence, no detergent", "how_it_was_run": "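Detergent-free condition (0.00005% Triton X-100) in acetate buffer pH 5.5 with DTT. 1.5 nM enzyme and compound were pre-mixed 15 min, then 2 uM Z-FR-AMC substrate added; reaction progress from fluorescence change between first and third reads (60 s).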", "values": [{"compound": "Cc1ccc2nc(-c3ccc(NC(=O)CN4CCN(C(=O)c5ccco5)CC4)cc3)sc2c1", "Potency": "inconclusive: 20 µM [activator, partial curve]"}, {"compound": "CCOC(=O)c1c(NC(=O)CSc2nnc(CNc3ccc(OC)cc3)n2C)sc(C)c1C", "Potency": "inconclusive: 39.8 µM [activator, single point]"}, {"compound": "CCN(CC)P(=O)(Oc1cccc(C)c1)N(CC)CC", "Potency": "inconclusive: 31.6 µM [activator, single point]"}, {"compound": "CCC1=C(OC(=O)N(CC)CC)N2C(=O)OC(=NCC3CC3)[C@]2(C)[C@H]2C1=CC[C@H]1C(=O)N(CC(=O)OC)C(=O)[C@H]12", "Potency": "inconclusive: 31.6 µM [activator, single point]"}, {"compound": "CCCCn1c(-c2ccccc2)cnc1SCC(=O)NCCc1ccc(OC)c(OC)c1", "Potency": "inconclusive: 25.1 µM [activator, single point]"}, {"compound": "CC12CCC(C(=O)N3CCN(C(c4ccccc4)c4ccccc4)CC3)(OC1=O)C2(C)C", "note": "(stereo unspecified)", "Potency": "inconclusive: 31.6 µM [activator, single point]"}, {"compound": "C[N+]1(NCC[N@@+]2(C)CCc3ccccc3C2)CCCCC1", "max response, negative = inhibition": "inactive: -2.27%"}, {"compound": "CCOC(=O)C1=C(C)Nc2sc(C(=O)c3ccc(OC)cc3)c(N)c2C1c1ccc(C(=O)OC)cc1", "note": "(stereo unspecified)", "Potency": "active: 31.6 µM"}, {"compound": "CC(=O)c1ccc(N(C(=O)Cn2nnc(-c3ccccc3)n2)C(C(=O)NC2CCCCC2)c2ccccn2)cc1", "note": "(stereo unspecified)", "Potency": "inconclusive: 39.8 µM [activator, single point]"}, {"compound": "COC(=O)c1ccc(OCC2c3cc(OC)c(OC)cc3CCN2C(=O)c2ccco2)cc1", "note": "(stereo unspecified)", "Potency": "inconclusive: 39.8 µM [activator, single point]"}, {"compound": "Cc1nc2c3ccccc3nc(NNC(=O)CCC(=O)N3CCN(c4cccc(C(F)(F)F)c4)CC3)n2n1", "Potency": "inconclusive: 31.6 µM [activator, single point]"}, {"compound": "CC1CCCN(c2nc3c(c(=O)n(C)c(=O)n3C)n2CCSc2nc3ccccc3s2)C1", "note": "(stereo unspecified)", "Potency": "inconclusive: 31.6 µM [activator, single point]"}, {"compound": "O=C(NCCCN1CCN(c2ccccc2F)CC1)c1cc2c(s1)-c1ccccc1OC2", "max response, negative = inhibition": "inactive: 22.9%"}, {"compound": "CNC(=O)[C@H]1O[C@H](n2cnc3c(NCc4cccc(I)c4)ncnc32)[C@@H](O)[C@@H]1O", "Potency": "inconclusive: 39.8 µM [activator, single point]"}, {"compound": "CCCCCCCC(=O)N/N=C(\\C)c1ccc(O)cc1O", "Potency": "inconclusive: 31.6 µM [inhibitor, single point]"}, {"compound": "Cc1cccc(CNC(=O)c2ccc(NC(=O)N3CCSc4ccccc43)cc2)c1", "Potency": "inconclusive: 39.8 µM [inhibitor, single point]"}, {"compound": "O=S(=O)(Nc1ccn(-c2ccccc2)n1)c1ccc(Br)cc1", "Potency": "inconclusive: 10 µM [inhibitor, partial curve]"}, {"compound": "c1ccc(C2c3c(ccc4ccccc34)Oc3ncn4nc(-c5ccco5)nc4c32)cc1", "note": "(stereo unspecified)", "Potency": "active: 3.16 µM"}, {"compound": "COc1ccc(OC)c(C(=O)c2ccc(C(=O)Nc3ccc4ccccc4c3)cc2)c1", "Potency": "inconclusive: 39.8 µM [inhibitor, single point]"}, {"compound": "COc1ccc(C)cc1-n1nnc(C(=O)Nc2cccc(SC)c2)c1C", "max response, negative = inhibition": "inactive: 1.9%"}, {"compound": "CCc1cc2cc(C)cc(C)c2nc1SCC(=O)N1CCN(C(=O)c2ccco2)CC1", "Potency": "inconclusive: 39.8 µM [activator, single point]"}, {"compound": "CC(=O)N1CCCc2cc(S(=O)(=O)N3CCc4ccccc4C3)ccc21", "Potency": "inconclusive: 39.8 µM [activator, single point]"}, {"compound": "COc1cc(CNc2cccc(F)c2)cc(Br)c1O", "Potency": "active: 25.1 µM"}, {"compound": "CCOC(=O)c1cc(-c2ccccc2)n(-c2cccc(C(=O)Nc3cccc(C(C)=O)c3)c2)c1C", "Potency": "inconclusive: 39.8 µM [inhibitor, single point]"}, {"compound": "COc1cccc(N2CCN(C(=O)CN3C(=O)COc4ccc(S(=O)(=O)N5CCC(C)CC5)cc43)CC2)c1", "Potency": "inconclusive: 39.8 µM [activator, single point]"}, {"compound": "COc1ccc(-c2nnc(SCC(=O)N(C)Cc3ccccc3)o2)cc1OC", "Potency": "inconclusive: 39.8 µM [inhibitor, single point]"}, {"compound": "Cc1ccc2cccc(N=Cc3c(C)[nH]n(-c4ccccc4)c3=O)c2n1", "Potency": "inconclusive: 31.6 µM [activator, single point]"}, {"compound": "Brc1ccccc1-c1nnc(CSc2nncn2-c2ccccc2)o1", "max response, negative = inhibition": "inactive: -7.8%"}, {"compound": "Clc1cccc(N/N=C/c2ccc(N3CCOCC3)cc2)c1", "Potency": "inconclusive: 25.1 µM [inhibitor, single point]"}, {"compound": "COc1ccccc1C(=O)Nc1ccc2nc(SCC(=O)N(C)C)sc2c1", "Potency": "inconclusive: 31.6 µM [activator, single point]"}, {"compound": "COc1ccc(-n2ncc3c(N4CCc5ccccc54)ncnc32)cc1", "Potency": "inconclusive: 10 µM [inhibitor, partial curve]"}, {"compound": "Cc1cccc(Oc2ccc3c(c2)Oc2ccccc2NC3=O)c1", "Potency": "inconclusive: 25.1 µM [inhibitor, single point]"}, {"compound": "CCOc1ccc(OCC)c(NC(=O)c2csc3c2CCCC3)c1", "max response, negative = inhibition": "inactive: 0.249%"}, {"compound": "O=C(NCc1ccc2c(c1)OCO2)c1ccc(Cl)c(S(=O)(=O)NCc2ccccc2)c1", "Potency": "inconclusive: 25.1 µM [inhibitor, single point]"}, {"compound": "N=C1[C@@H](O)[C@]2(I)c3ccccc3N3C(=N)[C@H](O)[C@@H]4c5ccccc5N1[C@@H]4[C@@H]32", "max response, negative = inhibition": "inactive: -1.21%"}, {"compound": "Cc1ccc(C(=O)Nc2sc3c(c2C(=O)NCc2ccco2)CCCC3)cc1", "Potency": "inconclusive: 39.8 µM [inhibitor, single point]"}, {"compound": "CCOc1ccc(CNC(=O)C2=Cc3cc(Br)ccc3OC2)cc1OC", "Potency": "inconclusive: 31.6 µM [activator, single point]"}, {"compound": "Cc1cc(C)c(Cn2c(=O)n(CCCC(=O)NCc3ccco3)c(=O)c3sccc32)c(C)c1", "Potency": "inconclusive: 31.6 µM [inhibitor, single point]"}, {"compound": "O=C(c1ccncc1)N1CCC2(CCCN(c3cccc(-c4ccccc4)c3)C2)CC1", "Potency": "inconclusive: 39.8 µM [activator, single point]"}, {"compound": "COc1cc(C(C(=O)NC(C)(C)C)N(C(=O)CNC(=O)c2cccs2)c2ccc(C(C)C)cc2)cc(OC)c1OC", "note": "(stereo unspecified)", "Potency": "inconclusive: 31.6 µM [activator, partial curve]"}, {"compound": "COc1ccc(OC)c(CCNC(=O)C(C)n2c(C)c3cnn(-c4ccccc4)c(=O)c3c2C)c1", "note": "(stereo unspecified)", "Potency": "inconclusive: 39.8 µM [activator, single point]"}, {"compound": "O=C(OCc1nc2scc(-c3ccccc3)c2c(=O)[nH]1)c1cc(Cl)ccc1[N+](=O)[O-]", "Potency": "active: 31.6 µM"}, {"compound": "CCS(=O)(=O)c1cccc(C(=O)N2CCN(c3nc4c(C)ccc(Cl)c4s3)CC2)c1", "Potency": "inconclusive: 12.6 µM [activator, partial curve]"}, {"compound": "COc1ccc(O[C@H]2C=C[C@@H](c3ccccc3)O[C@@H]2COC(=O)CCC(C)=NO[C@@H]2O[C@H](COC(C)=O)[C@@H](OC(C)=O)[C@H](OC(C)=O)[C@H]2OC(C)=O)cc1", "Potency": "inconclusive: 15.8 µM [activator, partial curve]"}, {"compound": "COc1ccccc1NC(=O)c1sc2ncn(Cc3cccc4ccccc34)c(=O)c2c1C", "Potency": "active: 7.94 µM"}, {"compound": "Cc1ccc(S(=O)(=O)NCCc2nnc3ccc(SCC(=O)Nc4ccc(OC(F)(F)F)cc4)nn23)cc1", "Potency": "inconclusive: 39.8 µM [inhibitor, single point]"}, {"compound": "CCOc1cc(C(=O)OCc2cc(=O)n3nc(C4CC4)sc3n2)cc(OCC)c1OCC", "max response, negative = inhibition": "inactive: -0.689%"}, {"compound": "CC(C)CCNC(=O)c1ccc(Cn2c(SCC(N)=O)nc3ccccc3c2=O)cc1", "max response, negative = inhibition": "inactive: -6.79%"}, {"compound": "Cc1ccc(S(=O)(=O)N2c3ccccc3OCC2c2ccccc2)cc1", "note": "(stereo unspecified)", "Potency": "inconclusive: 31.6 µM [inhibitor, single point]"}, {"compound": "CC(C)[C@](N)(C(=O)O)c1ccccc1", "max response, negative = inhibition": "inactive: -2.24%"}, {"compound": "N#C/C(=C\\c1ccc(OCC(N)=O)cc1)c1ccccc1", "Potency": "inconclusive: 31.6 µM [inhibitor, single point]"}, {"compound": "COc1ccc(CSc2nnc3n(C)c(=O)c4c5c(sc4n23)CCCC5)cc1", "Potency": "inconclusive: 39.8 µM [activator, single point]"}, {"compound": "CCc1ccc(-n2nc(C)c3c(C(=O)N4CCN(c5cccc(Cl)c5)CC4)cc(C)nc32)cc1", "max response, negative = inhibition": "inactive: 9.74%"}, {"compound": "CCCN(CCC)S(=O)(=O)c1cc(Br)cc2c1N(C(=O)CC)CC2", "Potency": "inconclusive: 39.8 µM [activator, single point]"}, {"compound": "Fc1ccc(CSc2ncnc3c2oc2ccccc23)cc1", "max response, negative = inhibition": "inactive: 0.0313%"}, {"compound": "COc1cc(Br)ccc1C1C(C(=O)Nc2ccc(C)cc2C)=C(C)Nc2nnnn21", "note": "(stereo unspecified)", "Potency": "inconclusive: 5.01 µM [activator, full curve, poor fit]"}, {"compound": "O=C(C1CCN(S(=O)(=O)c2cccc3nsnc23)CC1)N1CC=C(c2ccccc2)CC1", "Potency": "inconclusive: 39.8 µM [inhibitor, single point]"}, {"compound": "O=C(NC1CCCCCC1)c1ccc(CS(=O)c2ccc(Br)cc2)o1", "note": "(stereo unspecified)", "Potency": "inconclusive: 25.1 µM [inhibitor, single point]"}, {"compound": "O=S(=O)(Nc1ccc(-c2ccc(N3CCCC3)nn2)cc1)c1ccc(OC(F)(F)F)cc1", "max response, negative = inhibition": "inactive: 11.5%"}, {"compound": "CCCCCOC(=O)c1[nH]c2c(c1C)C(=O)CC(c1ccco1)C2", "note": "(stereo unspecified)", "Potency": "inconclusive: 39.8 µM [inhibitor, single point]"}, {"compound": "CC(=O)c1nn(-c2cccc(Br)c2)cc1C(=O)c1ccc2ccccc2c1", "Potency": "active: 10 µM"}]}]}
